For one experiment, the target named is FLAG-TRIM21 (human) (UniProt P19474). Description: co-IP; HEK293T cells co-transfected with tagged proteins, lysed in NETN buffer, anti-FLAG M2 beads 4 h, 4°C, immunoblot; in some panels cells mock-treated or treated with 2 mM HU for 1 h, or transfected with siNC or siTRIM21.
Experiment [1] addresses FLAG-tagged CLASPIN ΔF2 mutant (human) (UniProt Q9HAW4). The experiment is described as above.
The target in a further experiment is CLASPIN Δ331–400 (human) (UniProt Q9HAW4). The description is as above.
In experiment [2] the target is FLAG-CLASPINΔ501–600aa (human) (UniProt Q9HAW4). Described as above.
The target in another experiment is FLAG-CLASPIN (human) (UniProt Q9HAW4). The experiment is described as above.
The target of experiment [3] is FLAG-CLASPIN ΔF3 mutant (human) (UniProt Q9HAW4). The description is as above.
In a further experiment the target is CLASPIN Δ401–500 (human) (UniProt Q9HAW4). The experiment is described as above.
Experiment [4] deals with CLASPIN (endogenous) (human (endogenous in HEK293T)) (UniProt Q9HAW4). The experiment can be described thus: co-IP; endogenous proteins; HEK293T lysate in NETN buffer (100 mM NaCl, 1 mM EDTA, 20 mM Tris-HCl pH 8.0, 0.5% NP-40), anti-CLASPIN antibody 4 h then protein A beads, 4°C; untreated cells and cells treated with 2 mM HU for the indicated times.

Sequences of proteins named here, by UniProt entry; tags and fusion partners are left off. A change or cut given only in a name is not applied to a line headed by its entry. A line that says so, or that is headed by a name, gives the form on record, which may keep a tag or linker.
UniProt P19474: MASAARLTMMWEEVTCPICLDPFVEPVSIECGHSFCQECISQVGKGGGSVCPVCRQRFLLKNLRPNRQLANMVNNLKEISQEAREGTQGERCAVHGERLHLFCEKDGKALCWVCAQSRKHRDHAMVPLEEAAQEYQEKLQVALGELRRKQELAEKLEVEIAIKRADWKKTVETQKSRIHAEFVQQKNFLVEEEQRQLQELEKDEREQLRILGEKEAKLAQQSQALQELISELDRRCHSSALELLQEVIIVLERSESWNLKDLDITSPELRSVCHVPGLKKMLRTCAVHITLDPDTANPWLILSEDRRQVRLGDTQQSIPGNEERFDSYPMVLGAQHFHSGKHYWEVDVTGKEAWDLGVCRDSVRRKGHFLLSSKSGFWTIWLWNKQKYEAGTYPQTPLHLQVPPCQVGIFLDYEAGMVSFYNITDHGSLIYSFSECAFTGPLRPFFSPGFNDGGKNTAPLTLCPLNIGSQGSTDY
UniProt Q9HAW4: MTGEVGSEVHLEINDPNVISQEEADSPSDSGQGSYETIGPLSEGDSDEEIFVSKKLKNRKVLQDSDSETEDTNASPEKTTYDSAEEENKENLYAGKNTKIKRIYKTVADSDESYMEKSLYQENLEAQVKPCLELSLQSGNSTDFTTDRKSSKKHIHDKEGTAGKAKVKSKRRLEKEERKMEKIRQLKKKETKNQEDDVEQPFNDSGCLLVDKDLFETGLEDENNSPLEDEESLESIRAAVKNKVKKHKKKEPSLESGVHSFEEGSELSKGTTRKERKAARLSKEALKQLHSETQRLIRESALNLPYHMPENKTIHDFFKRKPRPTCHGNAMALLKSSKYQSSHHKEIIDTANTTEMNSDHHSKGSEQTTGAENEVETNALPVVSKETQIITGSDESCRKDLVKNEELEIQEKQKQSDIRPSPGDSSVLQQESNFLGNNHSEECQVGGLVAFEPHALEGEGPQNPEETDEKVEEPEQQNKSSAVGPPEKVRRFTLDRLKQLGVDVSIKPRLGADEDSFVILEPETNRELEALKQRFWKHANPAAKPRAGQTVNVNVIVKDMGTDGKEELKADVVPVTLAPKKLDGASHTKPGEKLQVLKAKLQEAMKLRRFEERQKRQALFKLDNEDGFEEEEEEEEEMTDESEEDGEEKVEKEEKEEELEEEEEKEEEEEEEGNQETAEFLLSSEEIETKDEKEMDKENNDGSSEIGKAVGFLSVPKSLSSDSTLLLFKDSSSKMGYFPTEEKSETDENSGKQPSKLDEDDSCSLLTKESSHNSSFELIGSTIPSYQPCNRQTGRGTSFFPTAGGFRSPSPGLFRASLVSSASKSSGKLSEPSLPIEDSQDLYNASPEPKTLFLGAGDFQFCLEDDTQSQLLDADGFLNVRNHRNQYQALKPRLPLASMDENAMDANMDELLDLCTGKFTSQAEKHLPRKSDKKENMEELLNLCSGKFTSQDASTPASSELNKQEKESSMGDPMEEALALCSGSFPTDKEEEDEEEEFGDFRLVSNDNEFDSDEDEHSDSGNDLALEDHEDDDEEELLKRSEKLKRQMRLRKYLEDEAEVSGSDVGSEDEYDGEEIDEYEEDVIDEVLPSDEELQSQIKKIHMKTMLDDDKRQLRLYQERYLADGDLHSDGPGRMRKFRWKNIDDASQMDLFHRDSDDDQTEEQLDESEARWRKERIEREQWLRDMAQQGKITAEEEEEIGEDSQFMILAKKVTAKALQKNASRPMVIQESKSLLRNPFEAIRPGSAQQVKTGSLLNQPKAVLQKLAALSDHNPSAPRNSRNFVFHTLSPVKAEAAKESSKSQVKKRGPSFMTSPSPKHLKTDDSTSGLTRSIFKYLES
FLAG-tagged CLASPIN ΔF2 mutant (Q9HAW4, form named): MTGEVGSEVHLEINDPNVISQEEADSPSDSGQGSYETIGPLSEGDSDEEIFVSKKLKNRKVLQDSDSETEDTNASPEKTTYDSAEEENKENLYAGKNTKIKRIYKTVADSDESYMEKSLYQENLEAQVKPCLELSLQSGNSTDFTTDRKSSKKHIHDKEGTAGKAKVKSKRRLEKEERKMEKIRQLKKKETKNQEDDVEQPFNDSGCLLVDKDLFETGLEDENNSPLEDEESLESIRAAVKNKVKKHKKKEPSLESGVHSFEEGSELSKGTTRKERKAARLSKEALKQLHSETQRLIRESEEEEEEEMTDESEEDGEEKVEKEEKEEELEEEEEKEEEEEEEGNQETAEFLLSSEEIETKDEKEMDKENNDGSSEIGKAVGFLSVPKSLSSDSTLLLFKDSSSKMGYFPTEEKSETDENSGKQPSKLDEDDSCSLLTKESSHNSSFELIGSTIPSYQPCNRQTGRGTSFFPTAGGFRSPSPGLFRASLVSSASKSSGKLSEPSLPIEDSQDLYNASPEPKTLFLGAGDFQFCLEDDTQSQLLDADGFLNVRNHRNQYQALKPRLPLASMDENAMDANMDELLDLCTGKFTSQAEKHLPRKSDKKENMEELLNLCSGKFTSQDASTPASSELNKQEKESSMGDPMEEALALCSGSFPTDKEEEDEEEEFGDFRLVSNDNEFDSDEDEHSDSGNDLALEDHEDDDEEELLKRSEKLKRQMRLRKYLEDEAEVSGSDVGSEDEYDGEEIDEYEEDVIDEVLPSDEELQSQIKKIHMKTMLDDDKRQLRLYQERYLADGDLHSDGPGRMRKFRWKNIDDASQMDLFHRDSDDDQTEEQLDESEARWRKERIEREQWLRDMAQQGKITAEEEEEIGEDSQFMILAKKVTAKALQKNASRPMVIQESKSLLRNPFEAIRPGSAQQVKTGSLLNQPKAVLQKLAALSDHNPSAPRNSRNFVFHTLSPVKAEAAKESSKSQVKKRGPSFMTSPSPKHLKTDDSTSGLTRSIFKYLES
CLASPIN Δ331–400 (Q9HAW4, form named): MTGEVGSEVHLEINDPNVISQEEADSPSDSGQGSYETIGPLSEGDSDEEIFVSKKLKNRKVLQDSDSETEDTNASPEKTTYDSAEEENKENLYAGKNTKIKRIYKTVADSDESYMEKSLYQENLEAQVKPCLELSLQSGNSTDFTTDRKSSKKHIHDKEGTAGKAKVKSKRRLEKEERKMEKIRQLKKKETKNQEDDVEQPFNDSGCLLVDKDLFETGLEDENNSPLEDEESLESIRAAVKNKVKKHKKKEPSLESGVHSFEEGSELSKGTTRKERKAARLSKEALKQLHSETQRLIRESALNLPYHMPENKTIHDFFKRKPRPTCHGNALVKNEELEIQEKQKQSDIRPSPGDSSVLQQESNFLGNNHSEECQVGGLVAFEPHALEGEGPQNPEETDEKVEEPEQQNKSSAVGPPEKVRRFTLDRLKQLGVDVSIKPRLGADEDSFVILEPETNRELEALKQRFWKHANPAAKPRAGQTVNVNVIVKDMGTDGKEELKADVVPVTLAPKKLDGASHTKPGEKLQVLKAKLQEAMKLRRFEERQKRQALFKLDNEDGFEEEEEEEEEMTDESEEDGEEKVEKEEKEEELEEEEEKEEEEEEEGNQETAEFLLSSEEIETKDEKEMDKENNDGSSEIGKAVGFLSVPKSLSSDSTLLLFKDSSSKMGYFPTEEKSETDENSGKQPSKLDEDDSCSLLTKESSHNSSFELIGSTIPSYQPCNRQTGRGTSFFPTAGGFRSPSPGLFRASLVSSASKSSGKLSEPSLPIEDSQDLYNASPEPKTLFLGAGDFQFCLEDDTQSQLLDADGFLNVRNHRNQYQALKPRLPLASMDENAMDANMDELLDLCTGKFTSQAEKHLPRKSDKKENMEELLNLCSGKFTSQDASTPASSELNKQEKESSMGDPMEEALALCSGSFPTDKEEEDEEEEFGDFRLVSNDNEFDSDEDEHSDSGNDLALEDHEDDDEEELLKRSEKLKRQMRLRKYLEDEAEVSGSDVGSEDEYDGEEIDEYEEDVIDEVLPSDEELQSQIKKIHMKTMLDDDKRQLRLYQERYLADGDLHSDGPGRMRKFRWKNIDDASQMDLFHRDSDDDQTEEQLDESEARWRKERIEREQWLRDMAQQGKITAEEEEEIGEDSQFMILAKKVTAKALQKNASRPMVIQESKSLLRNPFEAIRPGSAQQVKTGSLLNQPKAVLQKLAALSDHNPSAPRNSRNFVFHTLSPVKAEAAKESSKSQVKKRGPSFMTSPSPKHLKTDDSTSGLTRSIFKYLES
FLAG-CLASPINΔ501–600aa (Q9HAW4, form named): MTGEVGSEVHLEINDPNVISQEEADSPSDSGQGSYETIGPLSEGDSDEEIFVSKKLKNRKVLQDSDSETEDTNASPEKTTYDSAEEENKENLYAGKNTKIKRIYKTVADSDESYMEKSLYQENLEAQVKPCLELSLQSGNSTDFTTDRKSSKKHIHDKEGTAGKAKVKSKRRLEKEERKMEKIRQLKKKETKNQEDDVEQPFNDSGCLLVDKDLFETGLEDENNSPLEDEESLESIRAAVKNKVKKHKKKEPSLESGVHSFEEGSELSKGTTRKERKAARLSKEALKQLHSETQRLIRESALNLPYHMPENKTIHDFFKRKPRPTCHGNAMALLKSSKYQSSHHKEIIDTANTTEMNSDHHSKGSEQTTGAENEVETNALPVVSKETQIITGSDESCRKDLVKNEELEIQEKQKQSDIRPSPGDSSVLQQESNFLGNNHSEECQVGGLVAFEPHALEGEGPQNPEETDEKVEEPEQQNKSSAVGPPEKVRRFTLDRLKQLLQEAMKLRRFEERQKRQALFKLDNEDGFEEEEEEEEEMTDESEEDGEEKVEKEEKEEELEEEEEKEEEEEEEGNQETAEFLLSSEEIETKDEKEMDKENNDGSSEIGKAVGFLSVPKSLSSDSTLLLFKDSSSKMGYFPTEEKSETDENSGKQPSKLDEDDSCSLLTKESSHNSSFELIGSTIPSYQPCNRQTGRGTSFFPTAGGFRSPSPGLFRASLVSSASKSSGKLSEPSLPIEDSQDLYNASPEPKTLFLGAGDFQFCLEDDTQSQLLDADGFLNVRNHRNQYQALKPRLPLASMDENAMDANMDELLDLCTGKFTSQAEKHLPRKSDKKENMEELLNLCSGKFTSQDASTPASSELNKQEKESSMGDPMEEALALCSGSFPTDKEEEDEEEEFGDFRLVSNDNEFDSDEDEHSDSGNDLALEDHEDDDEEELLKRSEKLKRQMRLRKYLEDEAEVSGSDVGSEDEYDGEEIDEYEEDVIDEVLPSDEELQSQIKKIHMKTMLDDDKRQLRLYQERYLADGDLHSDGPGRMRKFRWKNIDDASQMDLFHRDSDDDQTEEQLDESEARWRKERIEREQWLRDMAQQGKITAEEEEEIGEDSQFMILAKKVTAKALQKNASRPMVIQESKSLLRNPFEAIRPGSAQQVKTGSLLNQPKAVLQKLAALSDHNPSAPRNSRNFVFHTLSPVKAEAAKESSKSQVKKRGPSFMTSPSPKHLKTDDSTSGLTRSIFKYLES
FLAG-CLASPIN ΔF3 mutant (Q9HAW4, form named): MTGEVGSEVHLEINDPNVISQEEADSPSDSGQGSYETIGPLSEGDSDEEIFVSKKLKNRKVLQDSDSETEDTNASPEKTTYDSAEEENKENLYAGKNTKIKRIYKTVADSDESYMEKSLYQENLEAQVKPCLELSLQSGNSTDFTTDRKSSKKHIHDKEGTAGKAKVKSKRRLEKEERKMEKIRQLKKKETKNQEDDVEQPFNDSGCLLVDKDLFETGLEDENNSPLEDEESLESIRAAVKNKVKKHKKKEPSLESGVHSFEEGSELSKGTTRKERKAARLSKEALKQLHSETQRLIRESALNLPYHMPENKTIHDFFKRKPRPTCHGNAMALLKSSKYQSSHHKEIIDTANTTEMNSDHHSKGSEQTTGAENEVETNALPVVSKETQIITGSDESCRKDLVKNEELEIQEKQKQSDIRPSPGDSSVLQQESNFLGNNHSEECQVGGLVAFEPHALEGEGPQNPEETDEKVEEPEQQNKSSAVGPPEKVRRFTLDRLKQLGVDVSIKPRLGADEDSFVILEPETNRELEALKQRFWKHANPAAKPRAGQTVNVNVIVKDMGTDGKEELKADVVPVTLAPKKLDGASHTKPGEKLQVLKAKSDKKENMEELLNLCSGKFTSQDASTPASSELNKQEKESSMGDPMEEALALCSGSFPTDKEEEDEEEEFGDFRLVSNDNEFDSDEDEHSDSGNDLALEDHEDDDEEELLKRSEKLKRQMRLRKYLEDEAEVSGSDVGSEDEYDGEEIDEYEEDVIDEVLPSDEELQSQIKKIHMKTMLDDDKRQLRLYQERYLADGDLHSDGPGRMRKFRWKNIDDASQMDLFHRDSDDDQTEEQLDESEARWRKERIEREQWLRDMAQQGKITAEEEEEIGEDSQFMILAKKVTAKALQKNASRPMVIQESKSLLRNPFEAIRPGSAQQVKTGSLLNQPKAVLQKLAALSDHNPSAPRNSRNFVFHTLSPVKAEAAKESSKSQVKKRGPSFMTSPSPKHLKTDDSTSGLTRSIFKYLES

These are yes or no findings as the source states them, for the method shown. In cells and extracts the contact can be indirect. Some results given as binding are weak or reduced against the parent protein; the word gives no strength.

HA-CLASPIN (from UniProt Q9HAW4 1-1339): the binding result with FLAG-TRIM21 (human) was “binds”.

For the substance HA-TRIM21 (from UniProt P19474 1-475), the binding result in experiment [1] is listed as “no binding”; with CLASPIN Δ331–400 (human), “binds”; in experiment [2], “binds”; in the experiment with FLAG-CLASPIN (human), “binds”; in experiment [3] it was “binds”; in the experiment with CLASPIN Δ401–500 (human) it was “binds”.

Regarding “TRIM21 (endogenous) (from UniProt P19474 1-475)”, in experiment [4], the binding result is given as “binds”.

The record behind these values is article PMC8860585.
